Experimental data reported in PubChem BioAssay AID1346428 (National Center for Advancing Translational Sciences (NCATS), 2018).
Several values for one entry are separate records, joined by “and”; a condition that tells them apart may be missing. Identical values can stand only once. Screen size: about 48,000 compounds; about 1,200 (2.5%) were called active. Another 2% or so got no clear call; they are omitted.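 How the source made its calls: active means activation of at least 60% and not above a set upper limit (about 1 call in 100 departs from these limits); inconclusive means activation of 40% to 60%, or above that upper limit; inactive means activation under 40%.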 Some of the results follow.

target: Probable G-protein coupled receptor 32 (Homo sapiens) (UniProt O75388); assay: qHTS for Agonists of Human Resolvin D1 Receptor DRV1; conditions: CHO-K1 GPR32 beta-arrestin PathHunter luminescence, 90 min; at 76.9 µM; active compounds read high; zero percent set by DMSO-only wells; further: 0% is about no effect
In short: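 Step 1: seed CHO-K1 GPR32 beta-arrestin cells, 2,500/well, overnight at 37 °C. Step 2: add compounds, 90 min at 37 °C. Step 3: detection reagent, 1 h ambient, then luminescence.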

Chain of UniProt O75388 (O75388 whole entry, looked up): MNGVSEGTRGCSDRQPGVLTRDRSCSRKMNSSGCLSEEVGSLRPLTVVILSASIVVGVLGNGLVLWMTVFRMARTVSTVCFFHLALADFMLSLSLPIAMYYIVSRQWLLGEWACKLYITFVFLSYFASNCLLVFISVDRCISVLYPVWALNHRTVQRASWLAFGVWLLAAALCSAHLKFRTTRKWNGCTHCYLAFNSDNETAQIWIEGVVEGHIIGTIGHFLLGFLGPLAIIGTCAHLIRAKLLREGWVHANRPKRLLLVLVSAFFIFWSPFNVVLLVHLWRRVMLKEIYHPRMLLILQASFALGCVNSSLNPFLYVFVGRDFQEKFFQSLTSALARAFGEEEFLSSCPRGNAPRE

| SMILES | activation |
| --- | --- |
| CCCSc1nnc2c(n1)OC(c1cccs1)Nc1ccc(Br)cc1-2 (stereo not given) | inactive: 33% |
| COc1ccccc1CNC(=O)Cn1c(=O)nc(-c2ccccc2)c2ccccc21 | inactive: -9.95% |
| CNCCC(Oc1ccccc1OC)c1ccccc1 (stereo not given) | inactive: 24.9% and inactive: -13.4% |
| O=C(NCCc1ccccc1)c1ccc(CS(=O)(=O)c2ccc(Cl)cc2)o1 | inactive: -17.1% |
| Cc1c(Cl)cccc1NC(=O)Nc1ccc2snnc2c1 | inactive: 38% |
| Oc1c(C(c2ccccc2F)N2CCCC2)sc2nc(-c3ccco3)nn12 (stereo not given) | inactive: 9.21% |
| CCCC1=Nc2cc(C(=O)NCCOC)ccc2Sc2ccccc21 | inactive: -25.1% |
| CCCOc1ccccc1C1C(C(=O)Nc2ccccc2)=C(C)Nc2nnnn21 (stereo not given) | inactive: -11.6% |
| CCc1ccc(N(CC)C(=O)Cn2cnc3sc(C)c(S(=O)(=O)N4CCN(c5ncccn5)CC4)c3c2=O)cc1 | inactive: -10.2% |
| CCC(=O)N1c2ccc(S(=O)(=O)CCC(=O)NCc3cccc(OC)c3)cc2CC1C (stereo not given) | inactive: -3.18% |
| CC(=O)Nc1ccc(NC(=O)c2cc(-c3ccc4c(c3)OCCO4)on2)cc1 | inactive: -4.91% |
| CC1CNCCN1S(=O)(=O)c1cccc2cnccc12 (stereo not given) | inactive: -9.62% |
| Cc1cccc(S(=O)(=O)c2cn(C)c3cc(N4CCC(C)CC4)c(F)cc3c2=O)c1 | inactive: -18.4% |
| COc1ccc(-c2noc(CSc3nnc(C)n3-c3ccc(C)c(C)c3)n2)c(OC)c1 | inactive: -6.05% |
| COc1ccc(-c2nc(SCC(=O)NCCc3ccccc3)n[nH]2)cc1 | inactive: -0.718% |
| Cc1cccc(CSc2ccc(-c3cccs3)nn2)c1 | inactive: -8.15% |
| O=C(NCc1ccccc1Cl)c1nnc(Cc2ccc(Cl)cc2)o1 | inactive: 12.9% |
| CCOc1ccc(NC(=O)C(C)n2c(=O)cc(C)c3c(C)nn(-c4ccccc4)c32)cc1 (stereo not given) | inactive: -2.06% |
| CCc1ccc(OCC(=O)Nc2ccc3c(c2)c2ccccc2n3CC)c(Br)c1 | inactive: -10.1% |
| N#C/C(=C\c1cc(Br)c(O)c(Br)c1)c1nc2ccccc2c(=O)[nH]1 | inactive: -22.7% |
| COc1ccccc1O | inactive: 14.8% |
| Cc1ccc2onc(CC(=O)N3CCN(c4ccccc4)CC3)c2c1 | inactive: -27.7% |

| SMILES | activation |
| --- | --- |
| Cc1ccc(C)c(N(C)C(=O)Cc2c(C(=O)O)[nH]c3ccc(Cl)cc23)c1 | active: 70.2% |
| CC(C)(C)CC(C)(C)c1ccc(OCC(=O)Nc2ccc(S(=O)(=O)Nc3ncccn3)cc2)cc1 | inactive: -3.24% |
| COc1ccc(C2C(C(=O)Nc3ccc(C)cc3C)=C(C)Nc3nc(SCc4cccc(C)c4)nn32)c(OC)c1 (stereo not given) | inactive: -2.68% |
| CC1CN(S(=O)(=O)c2cccc3cnccc23)CCN1 (stereo not given) | inactive: -1.82% |
| COc1cccc(CNC(=O)CN2C(=O)N(c3cccc(Cl)c3)S(=O)(=O)c3ccccc32)c1OC | inactive: -6.08% |
| COc1ccc(N2CCN(S(=O)(=O)c3ccc(-c4cnc(C5CC5)o4)cc3)CC2)cc1 | inactive: 9.46% |
| CN(C)c1ccc(Nc2nc3ccccc3n3nnnc23)cc1 | inactive: -14.9% |
| COc1ccccc1-c1nn2c(=O)cc(CN3CCN(C(=O)/C=C/c4ccccc4)CC3)nc2s1 | inactive: -2.61% |
| COc1ccccc1CNC(=O)CSc1nc(=O)[nH]c2c1CCC2 | inactive: 1.73% |
| CC1=C(C(=O)Nc2ccc(C)cc2C)C(c2ccc(Br)cc2)n2ncc(C(=O)Nc3cccc(C)c3)c2N1 (stereo not given) | inactive: -9.76% |
| CCOc1ccc(NC(=O)Cn2c(=O)n(CCCCC(=O)NCc3ccc4c(c3)OCO4)c(=O)c3ccccc32)cc1 | inactive: 14.1% |
| CCN(CC)c1ccc(-n2nc3cc(C)c(NC(=O)c4ccccc4C)cc3n2)c(C)c1 | inactive: -6.01% |
| CCc1ccc(S(=O)(=O)NCc2nc3cccnc3n2Cc2cccc(OC)c2)cc1 | inactive: -23.9% |
| CCCCCn1c(CNC(=O)c2ccccc2)nc2ccccc21 | inactive: 22.7% |
| Cc1ccccc1Cn1c(=O)n(CC2CCC(C(=O)N3CCOCC3)CC2)c(=O)c2sccc21 (stereo not given) | inactive: -8.77% |
| CCOC(=O)C1=C[C@]2(CC)CCCN3CCc4c(n1c1ccccc41)[C@@H]32 | inactive: 49.1% and inactive: -21.6% |
| COc1ccc(S(=O)(=O)c2nnn(-c3ccc(C(C)C)cc3)c2C)cc1 | inactive: -3.25% |
| Cc1c(Cl)cccc1Nc1nn2c(=O)c3ccc(C(=O)NCCC4=CCCCC4)cc3nc2s1 | inactive: -12.5% |
| Cc1cc(C)c(S(=O)(=O)N2CCN(Cc3ccc4c(c3)OCO4)CC2)cc1C | inactive: -31.9% |
| Cc1ccc2c(c1)c1c3n2CCN(C(=O)c2ccc(C(F)(F)F)cc2)C3CCC1 (stereo not given) | inactive: 0.484% |
| COc1ccc(-c2cc(C(F)(F)F)n3nc(C(=O)Nc4cc(C)ccc4C)cc3n2)cc1 | inactive: 7.62% |
| CCOC(=O)c1sc2ccccc2c1S(=O)(=O)N1CCN(c2cc(C)ccc2C)CC1 | inactive: -16% |

| SMILES | activation |
| --- | --- |
| O=C(C1CCN(c2ncnc3c2nc2n3CCCCC2)CC1)N1CCN(c2ccc(Cl)cc2)CC1 | inactive: -2.51% |
| Cc1nn(C(=O)c2cccc(F)c2)c(C)c1S(=O)(=O)N1CCOCC1 | inactive: -4.89% |
| COc1ccc(OCC(=O)Nc2ccc3nn(-c4ccc(OC)cc4)nc3c2)cc1 | inactive: -6.97% |
| COc1ccc(CCNC(=O)c2cc3c(=O)oc4ccc(C)cc4c3s2)cc1OC | inactive: 28.4% |
| CCNC(=O)c1cc2n(n1)CCCN(Cc1ccc(C)cc1)C2=O | inactive: 9.92% |
| O=C(CCSCc1ccc(Cl)cc1)NCc1ccc(F)cc1Cl | inactive: 12.1% |
| CS(=O)(=O)N1CCc2cc(C(=O)N3CCN(c4ccccc4F)CC3)ccc21 | inactive: -1.06% |
| O=C(CSc1nccn1Cc1ccc(F)cc1)NCc1ccc(F)cc1 | inactive: 5.38% |
| Cc1cc(C)c(NC(=O)c2c(C)nn(-c3ccc(F)cc3)c2-n2cccc2)c(C)c1 | inactive: -2.04% |
| CN1CCN(C(=O)Cn2ncc3c4ccccc4n(Cc4ccc(Cl)cc4)c3c2=O)CC1 | inactive: 1.3% |
| Cc1ccc(NC(=O)c2c(NC(=O)c3ccccc3Cl)sc3c2CCC3)cc1 | inactive: 5.92% |
| COc1ccc(Nc2cc(C(=O)NC3CCCC3)c3ccccc3n2)cc1 | inactive: 36% |
| COc1ccc(C2C=C(c3ccc(Br)cc3)Nc3nnnn32)c(OC)c1 (stereo not given) | inactive: -33.1% |
| COc1ccccc1CNc1nc2c(S(=O)(=O)c3ccccc3)nnn2c2ccc(Cl)cc12 | inactive: -6.99% |
| CCc1nn2c(=O)c(S(=O)(=O)Nc3ccc(Br)cc3F)c(C)nc2s1 | inactive: 0.751% |
| O=C(NC1CCCCC1)c1ccc(CSc2nc3ccncc3n2Cc2ccc(F)cc2)cc1 | inactive: 13.9% |
| O=C1Cc2cc(Cl)ccc2N1 | inactive: -44.3% |
| Cc1ccccc1NC(=O)Cn1nnc(C(=O)NCCc2ccccc2)c1N | inactive: -27.3% |
| NC(=O)c1nn2c(C(F)(F)F)cc(-c3ccc(Br)cc3)nc2c1Cl | inactive: -10.2% |
| CC(=O)c1cccc(NC(=O)Cn2nc(C(F)(F)F)c3c2CCC3)c1 | inactive: -6.73% |
| Cc1ccc2nc(Cl)c3cc(C(=O)NCCCN(C)Cc4ccccc4)sc3c2c1 | inactive: -23.5% |
| CSc1nc(=O)c2c(n1C)NC(=O)CC2c1cc(F)cc(F)c1 (stereo not given) | inactive: -10.3% |

| SMILES | activation |
| --- | --- |
| COc1ccc(OC)c(NC(=O)CN2CCCN(Cc3ccccc3Cl)S2(=O)=O)c1 | inactive: -15.5% |
| O=C(CNC(=O)c1ccc(F)cc1)OCc1cc(=O)n2nc(C3CCCCC3)sc2n1 | inactive: -10.5% |
| CCOc1ccccc1C(=O)NCc1nc2cccnc2n1Cc1ccc(C)cc1 | inactive: -18.3% |
| CCOc1cc(CNC(=O)c2ccc3c(c2)N(C)C(=O)C2CCCCN32)ccc1OC (stereo not given) | inactive: -0.889% |
| COc1ccc(CNC(=O)CCCn2nc(C)c3c(C)n(-c4ccc(C)cc4)nc3c2=O)cc1OC | inactive: -18.3% |
| Cc1ccc(-n2ncc3c(NC4CCCCC4)ncnc32)cc1Cl | inactive: -3.25% |
| Cc1ccc(N2CCN(C(=O)c3cnn(-c4ccc(C)c(C)c4)c3C3CCNCC3)CC2)c(C)c1 | inactive: -8.04% |
| CCN(c1ccccc1)c1nnc(NC(=O)Nc2ccc(Br)c(C)c2)s1 | inactive: 5.02% |
| O=C(c1ccc2c(Cl)c3c(nc2c1)CCCC3)N1CCN(c2cccc(C(F)(F)F)c2)CC1 | inactive: 12.1% |
| O=C(CSc1nccn1Cc1ccco1)Nc1cc(C(F)(F)F)ccc1Cl | inactive: -15.8% |
| CCOc1ccc(CNC(=O)CCS(=O)(=O)c2cc3c4c(c2)CCN4C(=O)CC3)cc1OC | inactive: 2.49% |
| O=C(CN1C(=O)COc2ccc(S(=O)(=O)N3CCCCCC3)cc21)N1CCN(c2ccccc2F)CC1 | inactive: -18.8% |
| COc1ccc2nc(NC(=O)c3cc(=O)c4cc(C)cc(C)c4o3)sc2c1 | inactive: 41.4% |
| CCc1ccc(S(=O)(=O)c2cn(CC)c3cc(N4CCCCC4)c(F)cc3c2=O)cc1 | inactive: 9.97% |
| Cc1ccc(CNC(=O)CN2CCN(Cc3ccc(F)cc3Cl)C2=O)cc1 | inactive: 27.6% |
| COc1cc(OC)c(NC(=O)C2CCN(S(=O)(=O)c3ccc4c(c3)oc(=O)n4C)CC2)cc1Cl | inactive: -5.46% |
| COc1ccc(C(=O)N2CCN(CC(=O)N3CCOCC3)CC2)cc1 | inactive: -19.9% |
| CCc1ccc(Nc2sc(C(=O)c3ccc(F)cc3)c(N)c2S(=O)(=O)c2ccccc2)cc1 | inactive: -29.4% |
| Nc1c(C(=O)NCc2ccc(Cl)cc2)sc2nc(-c3ccc(F)cc3)ccc12 | inactive: 0.57% |
